In all, about 310,000 compounds went through this assay and about 2,200 (0.71%) showed an effect of 50% or more. The effect is printed as a negative number. The list shows a part of the results.
target: human ether-à-go-go-related gene (hERG) potassium channel (human, UniProt Q12809); assay: primary screen, population patch clamp on CHO cells stably expressing hERG
Sequence (Q12809 whole entry, looked up): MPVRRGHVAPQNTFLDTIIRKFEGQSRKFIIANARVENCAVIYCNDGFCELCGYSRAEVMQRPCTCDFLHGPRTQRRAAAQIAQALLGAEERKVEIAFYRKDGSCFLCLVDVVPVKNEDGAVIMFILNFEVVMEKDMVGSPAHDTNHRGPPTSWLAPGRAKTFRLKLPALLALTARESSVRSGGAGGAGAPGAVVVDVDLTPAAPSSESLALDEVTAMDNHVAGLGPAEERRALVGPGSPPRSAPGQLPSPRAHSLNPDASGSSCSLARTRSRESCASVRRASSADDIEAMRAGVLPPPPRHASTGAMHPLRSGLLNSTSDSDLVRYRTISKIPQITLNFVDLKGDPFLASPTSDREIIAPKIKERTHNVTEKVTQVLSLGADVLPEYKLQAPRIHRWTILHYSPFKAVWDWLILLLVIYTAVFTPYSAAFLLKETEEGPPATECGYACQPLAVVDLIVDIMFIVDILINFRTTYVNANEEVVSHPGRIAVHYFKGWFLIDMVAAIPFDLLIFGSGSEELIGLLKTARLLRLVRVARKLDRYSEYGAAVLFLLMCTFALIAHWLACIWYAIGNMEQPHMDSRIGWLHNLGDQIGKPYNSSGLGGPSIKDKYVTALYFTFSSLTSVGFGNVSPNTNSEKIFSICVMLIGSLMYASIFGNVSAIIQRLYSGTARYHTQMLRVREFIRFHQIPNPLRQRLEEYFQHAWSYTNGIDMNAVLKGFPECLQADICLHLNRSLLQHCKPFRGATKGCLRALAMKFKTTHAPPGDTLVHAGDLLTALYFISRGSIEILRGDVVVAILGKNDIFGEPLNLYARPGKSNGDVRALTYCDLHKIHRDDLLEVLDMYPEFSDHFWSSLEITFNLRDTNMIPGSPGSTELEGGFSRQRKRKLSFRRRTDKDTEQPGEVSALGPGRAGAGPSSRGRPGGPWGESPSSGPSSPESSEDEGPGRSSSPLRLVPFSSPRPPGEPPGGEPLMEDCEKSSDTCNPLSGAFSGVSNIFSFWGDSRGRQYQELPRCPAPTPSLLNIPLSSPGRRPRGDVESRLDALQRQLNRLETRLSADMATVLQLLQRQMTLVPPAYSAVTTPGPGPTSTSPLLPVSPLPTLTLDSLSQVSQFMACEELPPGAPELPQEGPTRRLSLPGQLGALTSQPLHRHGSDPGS

Structure (SMILES)	hERG current change (%, negative = inhibition) at 1uM
CC1CCC/C(=N\NC(=O)COc2ccc(Cl)cc2Cl)C1 (stereo not drawn)	-7.94%
Cc1ccc(OCC(=O)N/N=C2\CCOc3c(C)cccc32)cc1	6.68%
CN(CCC#N)C(=O)COC(=O)c1c2c(nc3ccccc13)/C(=C/c1ccco1)CC2	7.61%
O=C(O)C1CCCN1c1ncnc2c1oc1ccccc12 (stereo not drawn)	7.86%
CC(C)C(NC(=O)c1ccccc1F)C(=O)Nc1ccc2c(c1)OCO2 (stereo not drawn)	6.37%
CC(C)Oc1ccc(CCNC(=O)CC2C(=O)NCCN2C)cc1 (stereo not drawn)	7.15%
O=C(NNC(=O)c1nn(-c2ccc(F)cc2)ccc1=O)c1ccccc1Cl	9.2%
Cc1cnc(NC(=O)CSC(=S)N2CCOCC2)s1	20.3%
Cc1cccc(-n2ccc(=O)c(C(=O)Nc3ccc(S(=O)(=O)Nc4onc(C)c4C)cc3)n2)c1	11.6%
CNc1sc(C(=O)c2cccs2)c(N)c1-c1nc2ccccc2s1	14.7%
COc1ccc(N2C(=O)c3ccc(NC(C)=O)cc3C2=O)cc1	16.6%
COC(=O)c1sccc1NC(=S)Nc1ccc(F)cc1F	7.43%
COc1ccc(C(=O)C2CCCN(C(=O)Cn3nc(C)cc3C)C2)cc1F (stereo not drawn)	1.2%
O=C(Nn1c(-c2ccc(Cl)cc2)nc2ccccc2c1=O)c1cccnc1Cl	1.03%
COc1ccccc1Nc1ccc(N)cc1	6.04%
CCC(=O)NCCc1nc2cc(NC(=O)c3ccccc3Cl)ccc2n1C	8.46%
Cc1ccc[n+](CC(=O)c2ccc(NC(=O)c3ccccc3)cc2)c1.[Br-]	16.4%
COc1cc(Nc2nc(SCC#N)nc3ccccc23)cc(OC)c1OC	-10%
COCCC(=O)N1CCC(Oc2ccc(C(=O)NC3CCOC(C)(C)C3)cc2)CC1 (stereo not drawn)	20%
CCOC(=O)c1sc(NC(=O)CC)c(C#N)c1C	14.8%
COc1ccc(CN(CCCN2CCOCC2)C(=O)Nc2cccc(Cl)c2)cc1OC	-3.99%
CC(C)NCC(O)c1ccc(C2CCCC2)cc1.O=C(O)/C=C\C(=O)O (stereo not drawn)	7.02%

Structure (SMILES)	hERG current change (%, negative = inhibition) at 1uM
c1ccc(CSc2ncccn2)cc1	13.5%
O=C(O)CCSc1ncnc2sc(-c3ccccc3)cc12	7.1%
CCn1c(N2CCN(C(=O)NC3CCCCC3)CC2)nc2ccccc21	-9.49%
CCOC(=O)C1=C(C)N=C2SC(C(=O)OC)=CC(=O)N2C1c1ccc(F)cc1 (stereo not drawn)	12.9%
O=C(N1CCOCC1)N1CCC(n2nnc3ccccc32)CC1	5.69%
Cc1nc2cc(-c3cccs3)nn2c(NCC(C)(C)CN(C)C)c1C	6.04%
O=C(CP(=O)(c1ccccc1)c1ccccc1)Nc1nc2ccc(Cl)cc2s1	4.82%
O=C(CN1CCC(C(=O)c2ccc(Cl)cc2)CC1)Nc1ccc2c(c1)OCCO2	-1.86%
COc1ccc(S(=O)(=O)N2CCC(C(=O)N3CCc4ccccc4C3)CC2)cc1C	-1%
O=C(NCC1CCCCC1)C12CN(Cc3ccccc3)CC1C(c1cccc([N+](=O)[O-])c1)=NO2 (stereo not drawn)	6.52%
CCOC(=O)C(C)/C(C)=N/NC(=O)CCC(=O)Nc1cc(C)ccc1C (stereo not drawn)	12.2%
COc1ccnc(Oc2ccc(F)cc2)c1-c1ncn[nH]1	14%
Cc1cccc(OCC(O)CN2CCN(C3CCCCC3)CC2)c1.Cl (stereo not drawn)	-21.7%
CCN(CC)CCN1C(=O)C2C(C(=O)Nc3cccc(C)c3)C3C=CC2(O3)C1C(=O)NC1CCCC(C)C1C (stereo not drawn)	5.74%
COC(=O)NNC(=O)c1ccc(C(C)(C)C)cc1	15.6%
O=C(NNC(=O)c1ccccc1Br)c1ccccc1Cl	15.3%
Cc1ccc(C)c(N(CC(=O)NCc2ccco2)C(=O)CCC(=O)Nc2nccs2)c1	17.2%
NC[C@@H]1O[C@H](O[C@H]2[C@@H](O)[C@H](O[C@@H]3[C@@H](O)[C@H](N)C[C@H](N)[C@H]3O[C@H]3O[C@H](CO)[C@@H](O)[C@H](O)[C@H]3N)O[C@@H]2CO)[C@H](N)[C@@H](O)[C@@H]1O.O=S(=O)(O)O	23.3%
NC(=O)CN1CCOCCN(CC(N)=O)CCOCC1	19.1%
CCOc1ccc(N=Cc2c(O)n(-c3ccc(C)c(C)c3)c(=O)[nH]c2=O)cc1	-0.972%
CCC(=O)c1ccc(OCC(O)CNC2CCCC2)cc1 (stereo not drawn)	9.53%
COc1cc(C(=O)N2CCN(C(=O)C3CC3)CC2)cc(OC)c1OC	4.43%

Structure (SMILES)	hERG current change (%, negative = inhibition) at 1uM
COc1ccccc1NC(=O)Nc1ccnn1C1CCCCC1	3.93%
CCOC(=O)Cc1csc(NC(NC(=O)OCC)(C(=O)OCC)C(F)(F)F)n1 (stereo not drawn)	5.2%
CC(=O)Nc1ccc(S(=O)(=O)N(C)CC(=O)OCC(=O)N2CCCCC2)cc1	2.27%
CC(C#N)CCC#N (stereo not drawn)	14.9%
CCOc1ccc2c(C)nc(NC3=NC(C)(C)C=C(C)N3)nc2c1	-11.6%
O=C(CN1C(=O)C2C3C=CC(C3)C2C1=O)NCCN1CCCc2ccccc21 (stereo not drawn)	0.0655%
Cc1ccc2cc(C(c3nnnn3C(C)(C)C)N3CCCCCC3)c(=O)[nH]c2c1 (stereo not drawn)	3.68%
Cc1ccc(-c2nnn(CC(=O)Nc3ccccc3N3CCOCC3)n2)cc1	9.87%
COc1ccc(C(=O)COc2ccc(C)cc2NC(C)=O)cc1	9.85%
CCn1c(CC(=O)Nc2ccccc2)n[nH]c1=S	7.45%
COC(=O)c1cc(Br)c(=O)n(-c2ccc(OC)cc2)c1	5.39%
CCCCCCSc1cc(-c2nc3cnccn3c2NCc2ccccc2)ccc1OC.O=C(O)C(F)(F)F	8.24%
Cc1cccc(C(=O)Nc2ccc(C(=O)/C=C/c3cccs3)cc2)c1	3.67%
CCCCn1c(=O)c(-[n+]2ccccc2)c([O-])c2ccccc21	4.66%
O=C(c1ccc(N2CCCCCC2)c([N+](=O)[O-])c1)N1CCC2(CC1)OCCO2	-3.8%
COc1ccccc1NC(=S)NCC1CCCO1 (stereo not drawn)	15%
O=c1[nH]c(CS(=O)(=O)c2ccccc2)nc2ccccc12	3.96%
C/C(Cc1ccccc1)=N\NC(=O)CNC(=O)Cc1ccccc1	15.8%
CCOC(=O)C1(Cc2cccc(OC)c2)CCCN(C(=O)c2cc(CC(C)C)[nH]n2)C1 (stereo not drawn)	-0.175%
CN(C1CCCCC1)S(=O)(=O)c1cc2c3c(c1)CCN3C(=O)CC2	1.53%
O=C1c2ccccc2NC(c2ccc(O)cc2)N1c1ccccc1 (stereo not drawn)	-0.795%
CCOC(=O)CC(N)c1cccc([N+](=O)[O-])c1.Cl (stereo not drawn)	9.88%

Structure (SMILES)	hERG current change (%, negative = inhibition) at 1uM
COc1ccc(/C=C2/SC(=O)N(CCC(=O)Nc3ccc(C)cc3)C2=O)cc1OC	3.27%
COC(=O)C1=C(c2cc3ccccc3o2)C[C@@H]2CC[C@H]1N2C(=O)NC1CCCCC1	-7.33%
CN(C)C(/C=C/Nc1ccc([N+](=O)[O-])cc1)=C(C#N)C#N	-10.8%
O=C(N/N=C/c1c[nH]c2ccc(Br)cc12)C1CC1	9.55%
COC(=O)c1ccc(CSc2nnc(NC(=O)C3CC(=O)N(Cc4ccc(C)cc4)C3)s2)cc1 (stereo not drawn)	9.81%
COc1ccccc1C(=O)NCCC(=O)NCC(C)(C)N1CCOCC1	-0.451%
CCOC(=O)Cc1csc(NC(=O)CCCCCN2C(=O)c3cccc4cccc(c34)C2=O)n1	8.73%
COc1ccc(N(CCOc2ccccc2)S(=O)(=O)c2ccccc2)cc1	12%
Cn1c(=NC(=O)C(C)(C)C)sc2cccc(F)c21	3.79%
O=C(Nc1cccc(O)c1)c1ccc(C(F)(F)F)cc1	15.8%
O=C(c1cc2ccccc2[nH]1)N(Cc1cccnc1)CC1CCCN(C2CCCCC2)C1 (stereo not drawn)	-49.6%
CCOC(=O)C(/C=C(\C#N)C(=O)OCC)=C(/N)N1CCN(c2c(C)cccc2C)CC1	13.4%
CCOC(=O)c1ccc(NC(=O)CSc2nncn2-c2cccnc2)cc1	14%
Cc1ccccc1NS(=O)(=O)c1ccc(C(=O)N2CCN(c3ccccn3)CC2)cc1	5.6%
COc1ccc(/C=C/C(=O)c2ccc(NC3=NCCCS3)cc2)cc1OC	3.64%
Cc1cccnc1NC(=O)CCCNC(=O)c1ccc(Cl)cc1	-4.42%
COc1ccc(CCC(=O)NC2CCCCC2)cc1	-9.69%
CN(C)S(=O)(=O)c1ccc(NC(=O)CN2CCN(C(c3ccccc3)c3ccccc3)CC2)cc1	8.88%
COc1ccccc1NC(=O)c1ccccc1NS(=O)(=O)c1cccs1	10.2%
CCn1cc(CN2CCC(n3nccc3NC(=O)c3ccc4c(c3)OCO4)CC2)c(C)n1	10.9%
Cc1c(Cl)cccc1NC(=O)CCN1CCN(C)CC1	5.03%
